Results on 5 molecules are retold here after paper PMC5460038.

These are yes or no findings as the source states them, for the method shown. Binding seen in cells or lysates may run through a third protein. Some entries that bind do so weakly or less than the wild type. For part of these data: Sequences can lack the tags named with a protein.

One assay deals with T1, GFP-WIPI4 (human) (UniProt Q9Y484).
T1 sequence: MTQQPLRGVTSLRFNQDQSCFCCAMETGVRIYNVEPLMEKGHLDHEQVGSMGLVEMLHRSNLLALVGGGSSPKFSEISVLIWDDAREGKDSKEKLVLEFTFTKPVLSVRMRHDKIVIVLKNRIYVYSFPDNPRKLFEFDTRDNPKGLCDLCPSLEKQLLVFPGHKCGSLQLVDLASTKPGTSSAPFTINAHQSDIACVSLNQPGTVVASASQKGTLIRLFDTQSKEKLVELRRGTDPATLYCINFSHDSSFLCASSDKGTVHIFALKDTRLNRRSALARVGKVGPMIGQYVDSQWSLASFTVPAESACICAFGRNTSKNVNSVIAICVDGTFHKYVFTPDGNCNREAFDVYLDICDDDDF
Put plainly: co-IP; GFP- and myc-tagged WIPI variants co-expressed (Supplementary Fig. 3a,b); which antibody precipitated is not shown.

Assay [1] addresses T2, endogenous TSC1 (human (endogenous in U2OS)) (UniProt Q92574).
T2 sequence: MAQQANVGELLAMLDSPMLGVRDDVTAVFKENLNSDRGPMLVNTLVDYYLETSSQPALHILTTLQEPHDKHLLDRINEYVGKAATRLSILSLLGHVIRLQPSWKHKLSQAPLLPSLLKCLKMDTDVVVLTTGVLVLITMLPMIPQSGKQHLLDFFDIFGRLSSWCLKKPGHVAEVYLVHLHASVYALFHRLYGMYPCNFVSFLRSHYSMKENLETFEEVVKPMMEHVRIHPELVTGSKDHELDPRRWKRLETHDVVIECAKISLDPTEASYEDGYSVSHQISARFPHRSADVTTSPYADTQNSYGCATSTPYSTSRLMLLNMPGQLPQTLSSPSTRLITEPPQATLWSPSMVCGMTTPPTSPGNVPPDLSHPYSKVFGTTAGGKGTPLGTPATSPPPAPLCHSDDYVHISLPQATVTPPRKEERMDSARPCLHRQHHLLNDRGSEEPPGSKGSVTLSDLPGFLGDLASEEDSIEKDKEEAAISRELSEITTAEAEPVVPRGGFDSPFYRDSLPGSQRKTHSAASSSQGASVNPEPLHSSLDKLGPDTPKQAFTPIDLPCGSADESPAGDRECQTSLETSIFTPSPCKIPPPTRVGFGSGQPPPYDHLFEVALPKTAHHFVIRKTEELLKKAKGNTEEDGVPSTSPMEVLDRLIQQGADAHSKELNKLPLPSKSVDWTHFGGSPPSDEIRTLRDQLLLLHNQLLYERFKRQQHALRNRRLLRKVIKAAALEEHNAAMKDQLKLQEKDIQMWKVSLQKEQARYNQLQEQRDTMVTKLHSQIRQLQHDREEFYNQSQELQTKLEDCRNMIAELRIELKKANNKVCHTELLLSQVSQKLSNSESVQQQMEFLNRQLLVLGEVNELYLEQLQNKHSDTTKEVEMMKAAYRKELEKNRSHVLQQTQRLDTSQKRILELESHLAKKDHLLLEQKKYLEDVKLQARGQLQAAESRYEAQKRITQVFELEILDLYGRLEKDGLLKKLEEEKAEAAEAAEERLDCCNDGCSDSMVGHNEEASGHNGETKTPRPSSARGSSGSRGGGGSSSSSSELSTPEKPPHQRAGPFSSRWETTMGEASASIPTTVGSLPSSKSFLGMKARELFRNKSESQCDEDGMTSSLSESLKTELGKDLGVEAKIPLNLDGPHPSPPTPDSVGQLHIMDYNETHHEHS
Put plainly: co-IP; U2OS cells, endogenous proteins; anti-TSC1 immunoprecipitation, anti-WIPI1, anti-WIPI2, anti-WIPI3, anti-WIPI4 immunoblotting. Background: A western blot detects proteins with antibodies after separation by electrophoresis.

A further assay has as its target T3, GFP-WIPI1 (human) (UniProt Q5MNZ9).
T3 sequence: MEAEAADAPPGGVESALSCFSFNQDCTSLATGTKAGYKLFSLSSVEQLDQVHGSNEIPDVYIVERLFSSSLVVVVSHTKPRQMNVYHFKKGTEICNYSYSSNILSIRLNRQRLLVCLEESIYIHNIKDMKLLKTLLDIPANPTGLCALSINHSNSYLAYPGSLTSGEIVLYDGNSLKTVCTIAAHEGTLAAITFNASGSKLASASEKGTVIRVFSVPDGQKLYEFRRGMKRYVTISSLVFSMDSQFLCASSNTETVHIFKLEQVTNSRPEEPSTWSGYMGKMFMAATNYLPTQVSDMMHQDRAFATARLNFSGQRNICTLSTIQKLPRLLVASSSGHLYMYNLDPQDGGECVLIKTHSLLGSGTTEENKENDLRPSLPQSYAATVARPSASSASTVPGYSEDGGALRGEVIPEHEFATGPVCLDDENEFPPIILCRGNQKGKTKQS
Put plainly: co-IP; GFP- and myc-tagged WIPI variants co-expressed (Supplementary Fig. 3a,b); which antibody precipitated is not shown.

B1: myc-WIPI1 (protein, UniProt Q5MNZ9 1-446)
chain: T3 sequence
For B1, in the assay with GFP-WIPI4 (human), the binding result is reported as “binds”.

B2: endogenous WIPI1 (protein, UniProt Q5MNZ9 1-446)
chain: T3 sequence
Take B2: in assay [1], the binding entry is recorded as “no binding”.

B3: endogenous WIPI2 (protein, UniProt Q9Y4P8 1-454)
chain: MNLASQSGEAGAGQLLFANFNQDNTEVKGASRAAGLGRRAVVWSLAVGSKSGYKFFSLSSVDKLEQIYECTDTEDVCIVERLFSSSLVAIVSLKAPRKLKVCHFKKGTEICNYSYSNTILAVKLNRQRLIVCLEESLYIHNIRDMKVLHTIRETPPNPAGLCALSINNDNCYLAYPGSATIGEVQVFDTINLRAANMIPAHDSPLAALAFDASGTKLATASEKGTVIRVFSIPEGQKLFEFRRGVKRCVSICSLAFSMDGMFLSASSNTETVHIFKLETVKEKPPEEPTTWTGYFGKVLMASTSYLPSQVTEMFNQGRAFATVRLPFCGHKNICSLATIQKIPRLLVGAADGYLYMYNLDPQEGGECALMKQHRLDGSLETTNEILDSASHDCPLVTQTYGAAAGKGTYVPSSPTRLAYTDDLGAVGGACLEDEASALRLDEDSEHPPMILRTD
As for B3, in assay [1], the binding result was “no binding”.

B4: myc-WIPI2B (protein, UniProt Q9Y4P8-4 1-436)
chain: MNLASQSGEAGAGQLLFANFNQDNTSLAVGSKSGYKFFSLSSVDKLEQIYECTDTEDVCIVERLFSSSLVAIVSLKAPRKLKVCHFKKGTEICNYSYSNTILAVKLNRQRLIVCLEESLYIHNIRDMKVLHTIRETPPNPAGLCALSINNDNCYLAYPGSATIGEVQVFDTINLRAANMIPAHDSPLAALAFDASGTKLATASEKGTVIRVFSIPEGQKLFEFRRGVKRCVSICSLAFSMDGMFLSASSNTETVHIFKLETVKEKPPEEPTTWTGYFGKVLMASTSYLPSQVTEMFNQGRAFATVRLPFCGHKNICSLATIQKIPRLLVGAADGYLYMYNLDPQEGGECALMKQHRLDGSLETTNEILDSASHDCPLVTQTYGAAAGKGTYVPSSPTRLAYTDDLGAVGGACLEDEASALRLDEDSEHPPMILRTD
Turning to B4, the binding result with GFP-WIPI4 (human) and with GFP-WIPI1 (human) was “binds” throughout.

B5: endogenous WIPI4 (protein, UniProt Q9Y484 1-360)
chain: T1 sequence
For the molecule B5, in assay [1], the binding result is “no binding”.
